Experimental data reported in PubChem BioAssay AID2546 (National Center for Advancing Translational Sciences (NCATS), 2010).
In all, about 310,000 compounds went through this assay and about 11,000 (3.5%) were called active. Inconclusive means that the source gave no clear call. Such entries were picked first, then a sample of the others. Calls follow the shape of the dose curve; as a rule, active = well fitted inhibition curve with a large enough effect; inconclusive = small, poorly fitted or top-dose-only effect, or effect the other way; inactive = flat fitted curve, though single readings scatter. Potencies of inconclusive entries are left out as doubtful fits.

Assay: VP16 counterscreen qHTS for inhibitors of ROR gamma transcriptional activity;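 also: Gal4-VP16 expression switched on by copper sulfate through the metallothionein promoter; nearly all actives have a fitted effect of over 50% in size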
Details: Drosophila S2 Gal4-VP16 UAS-luciferase, luminescence, 20 h; series mostly up to 53.6 µM
Potency is read from the fitted curve at half-maximal effect; tags tell the direction and shape of the fitted curve.

Structure (SMILES)	Potency
C/C(=N\NC(=S)NC(C)C)c1cccc([N+](=O)[O-])c1	active: 3.98 µM
NC(=O)NC(=O)CC1S/C(=N/N=C2\CSC(=O)N2)NC1=O (stereo not drawn)	inactive
CC(=O)N/N=C/c1cc(C(C)(C)C)cc(/C=N/NC(C)=O)c1O	active: 14.1 µM
CC(=O)c1cn(CC(=O)Nc2cccc(C)c2C)c2ccccc12	active: 12.6 µM
Cc1ccccc1C(=O)N1CCN(c2ccc(NC(=O)c3ccco3)cc2Cl)CC1	active: 6.31 µM
CC(=O)N1CC(=O)N(c2ccccc2)C1=O	inactive
O=C(Nc1ccc2ncccc2c1)c1cc(Cl)ccc1Cl	inconclusive [activator, single point]
O=C(Nc1cccc(S(=O)(=O)N2CCCC2)c1)c1ccc2c(c1)OCO2	inconclusive [activator, single point]
Cc1c(Cl)cccc1NC(=S)N(CCCN1CCOCC1)Cc1cccs1	inconclusive [inhibitor, single point]
Cc1cccc(C)c1OCCOC(=O)c1n[nH]c2ccccc12	inconclusive [inhibitor, single point]
CNC(=S)N/N=C/c1cc(Br)cc(Br)c1O	active: 3.16 µM
COc1ccc(N2C(=O)[C@H]3CCC=C[C@H]3[C@@H]2c2ccccc2Br)cc1	active: 31.6 µM
CCc1cc(SC#N)cc(CC)c1NC(=O)CCl	active: 20 µM
Cc1cccc(CS(=O)(=O)c2ncc(Cl)c(C(=O)Nc3nnc(C(C)C)s3)n2)c1	inconclusive [inhibitor, single point]
Cc1ccc2nc(SCC3CCCCO3)[nH]c2c1 (stereo not drawn)	active: 6.31 µM
O=C(Nc1ccc(N2CCCCC2)cc1)c1ccccn1	active: 2 µM
CCOC(=O)c1c(-c2ccccc2)csc1NC(=O)CSc1nncs1	inconclusive [inhibitor, partial curve, poor fit]
CCOC(=O)c1c(NC(=O)C2=C(C)NC(=S)NC2c2ccc(C)cc2)sc(C)c1C (stereo not drawn)	active: 3.55 µM
Cc1ccc(-c2n[nH]c(=S)n2/N=C/c2cccn2C)cc1	active: 11.2 µM
O=C(NC(=S)Nc1cccc(Cl)c1Cl)C1CC1	active: 4.47 µM
CCN(CC(=O)NCc1cccs1)c1ccc(S(=O)(=O)N2CCN(C)CC2)cn1	inconclusive [inhibitor, single point]
Cn1nc([N+](=O)[O-])nc1Sc1nnnn1-c1cccc(C(=O)O)c1	inactive
CCn1nc(C)cc1C(=O)N1CCCC(N2CCN(c3cccc(Cl)c3)CC2)C1 (stereo not drawn)	inactive
